From PubChem BioAssay (NCI)
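Growth conditions: 96-well plates. Treatment: test compound, 48 hours, 5 concentrations. Analysis: linear interpolation between bracketing concentrations; unreached endpoints set to highest concentration. GI50 = concentration required for 50% inhibition of growth.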 Not every entry of the source has a single result; some have several. The other results are left out here. An entry can have further records. For part of these data: The tests behind the records often covered other concentration ranges, which the source does not state; some values may only mark the edge of a range.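 TGI is the concentration that stops growth completely.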 For part of these data: The records of an entry are repeats in other runs, samples, wells, individuals or studies. A tag in brackets gives the origin of a value. Letters count within one entry.

Experiments:
Assay in all cases: NCI-60 cell line screen, 48 h
[1] = test system: ACHN renal
[2] = test system: BT-549 breast
[3] = test system: COLO 205 colon
[4] = test system: EKVX NSCLC
[5] = test system: HCC-2998 colon
[6] = test system: HL-60(TB) leukemia
[7] = test system: HS 578T breast
[8] = test system: IGROV1 ovarian
[9] = test system: LOX IMVI melanoma
[10] = test system: OVCAR-3 ovarian
[11] = test system: SF-268 CNS
[12] = test system: SF-295 CNS
[13] = test system: T-47D breast
[14] = test system: TK-10 renal
[15] = test system: SR leukemia

| Compound | TGI [1] | GI50 [2] | TGI [3] | GI50 [4] | TGI [4] | TGI [5] | TGI [6] | TGI [7] | GI50 [8] | TGI [9] | GI50 [10] | TGI [10] | TGI [11] | TGI [12] | TGI [13] | TGI [14] | TGI [15] |
| --- | --- | --- | --- | --- | --- | --- | --- | --- | --- | --- | --- | --- | --- | --- | --- | --- | --- |
| COc1ccc2nc3cccc([N+](=O)[O-])c3c(NCCCO)c2c1 | 1.19 nM and 55.2 nM | 2.42 nM and 25.8 nM | 2.01 nM and 29.5 nM | 1.67 nM and 89.8 nM | 6.87 nM and 541 nM | 5.94 nM and 103 nM | 20 nM and 30.1 µM | 21.9 nM and 233 nM | 3.68 nM and 41.2 nM | 23.2 nM and 300 nM | 1.35 nM and 45.6 nM | 6.19 nM and 19.1 µM | 5.34 nM and 178 nM | 46.6 nM and 1.07 µM | 244 nM and 30.3 µM | 7.75 nM and 127 nM |  |
| NC(=O)Nc1cc(-c2cccc(F)c2)sc1C(=O)N[C@H]1CCCNC1 |  |  |  |  |  |  |  | 661 nM [sample A, mean of 2 tests] and 6.66 µM [sample B, mean of 4 tests] |  |  |  |  |  |  |  |  | > 8.36 µM [sample A, mean of 2 tests] and 528 nM [sample B, mean of 3 tests] |
